Measurements published in the supplement of paper PMC8728848.
The list shows a part of the results.

Legend:
Experiment in all cases: glycan array binding signal (z-score within array); higher = stronger binding
Details in all cases: glycan notation: IUPAC condensed, linker removed
GalNAc(a1-3)GalNAc = biological target: GalNAc(a1-3)GalNAc
Procedure, shortened: (§1)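 From the Consortium for Functional Glycomics database, 3228 arrays were curated, keeping only those whose protein sequence was available. Binding is given as a within-array Z-score averaged across arrays sharing a protein sequence and across linkers. Negative Z-scores can be read as non-binding.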

[1] = biological target: GalNAc(a1-3)GalNAc(a1-3)Gal(a1-4)Gal(b1-4)GlcNAc
Procedure, shortened: as §1

GalNAc(b1-3)Gal = biological target: GalNAc(b1-3)Gal
Procedure, shortened: as §1

[2] = biological target: GalNAc(b1-3)Gal(a1-4)Gal(b1-4)GlcNAc
Procedure, shortened: as §1

[3] = biological target: GalNAc(b1-3)Gal(a1-4)Gal(b1-4)GlcNAc(b1-3)Gal(b1-4)Glc
Procedure, shortened: as §1

[4] = biological target: GalNAc(b1-3)Gal(a1-6)Gal(b1-4)Glc
Procedure, shortened: as §1

GalNAc(b1-3)GalNAc = biological target: GalNAc(b1-3)GalNAc
Procedure, shortened: as §1

GalNAc(b1-4)GlcNAc = biological target: GalNAc(b1-4)GlcNAc
Procedure, shortened: as §1

[5] = biological target: GalNAc(b1-4)GlcNAc(b1-2)Man(a1-3)[GalNAc(b1-4)GlcNAc(b1-2)Man(a1-6)]Man(b1-4)GlcNAc(b1-4)GlcNAc
Procedure, shortened: as §1

Glc(a1-4)Glc = biological target: Glc(a1-4)Glc
Procedure, shortened: as §1

Glc(a1-6)Glc(a1-6)Glc = biological target: Glc(a1-6)Glc(a1-6)Glc
Procedure, shortened: as §1

Glc(b1-4)Glc = biological target: Glc(b1-4)Glc
Procedure, shortened: as §1

Glc(b1-6)Glc = biological target: Glc(b1-6)Glc
Procedure, shortened: as §1

GlcA(b1-3)Gal = biological target: GlcA(b1-3)Gal
Procedure, shortened: as §1

GlcA(b1-3)GlcNAc = biological target: GlcA(b1-3)GlcNAc
Procedure, shortened: as §1

GlcA(b1-6)Gal = biological target: GlcA(b1-6)Gal
Procedure, shortened: as §1

[6] = biological target: GlcNAc(a1-3)Gal(b1-4)GlcNAc
Procedure, shortened: as §1

[7] = biological target: GlcNAc(a1-4)Gal(b1-3)GlcNAc
Procedure, shortened: as §1

[8] = biological target: GlcNAc(a1-4)Gal(b1-4)GalNAc
Procedure, shortened: as §1

[9] = biological target: GlcNAc(a1-4)Gal(b1-4)GlcNAc
Procedure, shortened: as §1

[10] = biological target: GlcNAc(a1-4)Gal(b1-4)GlcNAc(b1-3)Gal(b1-4)Glc
Procedure, shortened: as §1

[11] = biological target: GlcNAc(a1-4)Gal(b1-4)GlcNAc(b1-3)Gal(b1-4)GlcNAc
Procedure, shortened: as §1

[12] = biological target: GlcNAc(a1-4)Gal(b1-4)GlcNAc(b1-3)Gal(b1-4)GlcNAc(b1-3)Gal(b1-4)GlcNAc
Procedure, shortened: as §1

[13] = biological target: GlcNAc(a1-4)Gal(b1-4)GlcNAc(b1-3)Gal(b1-4)[Fuc(a1-3)]GlcNAc(b1-3)Gal(b1-4)[Fuc(a1-3)]GlcNAc
Procedure, shortened: as §1

[14] = biological target: GlcNAc(a1-6)Gal(b1-4)GlcNAc
Procedure, shortened: as §1

[15] = biological target: GlcNAc(b1-2)Gal(b1-3)GalNAc
Procedure, shortened: as §1

[16] = biological target: GlcNAc(b1-2)Man(a1-3)[GlcNAc(b1-2)Man(a1-6)]Man(b1-4)GlcNAc(b1-4)GlcNAc
Procedure, shortened: as §1

[17] = biological target: GlcNAc(b1-2)Man(a1-3)[GlcNAc(b1-2)Man(a1-6)]Man(b1-4)GlcNAc(b1-4)[Fuc(a1-6)]GlcNAc
Procedure, shortened: as §1

[18] = biological target: GlcNAc(b1-2)[GlcNAc(b1-4)]Man(a1-3)[GlcNAc(b1-2)Man(a1-6)]Man(b1-4)GlcNAc(b1-4)GlcNAc
Procedure, shortened: as §1

GlcNAc(b1-3)Gal = biological target: GlcNAc(b1-3)Gal
Procedure, shortened: as §1

[19] = biological target: GlcNAc(b1-3)Gal(b1-3)GalNAc
Procedure, shortened: as §1

GlcNAc(b1-3)Gal(b1-4)Glc = biological target: GlcNAc(b1-3)Gal(b1-4)Glc
Procedure, shortened: as §1

[20] = biological target: GlcNAc(b1-3)Gal(b1-4)GlcNAc
Procedure, shortened: as §1

[21] = biological target: GlcNAc(b1-3)Gal(b1-4)GlcNAc(b1-3)Gal(b1-4)GlcNAc
Procedure, shortened: as §1

GlcNAc(b1-3)GalNAc = biological target: GlcNAc(b1-3)GalNAc
Procedure, shortened: as §1

GlcNAc(b1-3)Man = biological target: GlcNAc(b1-3)Man
Procedure, shortened: as §1

[22] = biological target: GlcNAc(b1-3)[GlcNAc(b1-4)][GlcNAc(b1-6)]GlcNAc
Procedure, shortened: as §1

[23] = biological target: GlcNAc(b1-3)[GlcNAc(b1-6)]Gal(b1-4)GlcNAc
Procedure, shortened: as §1

[24] = biological target: GlcNAc(b1-3)[GlcNAc(b1-6)]GalNAc
Procedure, shortened: as §1

[25] = biological target: GlcNAc(b1-4)Gal(b1-4)GlcNAc
Procedure, shortened: as §1

GlcNAc(b1-4)GlcNAc = biological target: GlcNAc(b1-4)GlcNAc
Procedure, shortened: as §1

[26] = biological target: GlcNAc(b1-4)GlcNAc(b1-4)GlcNAc
Procedure, shortened: as §1

[27] = biological target: GlcNAc(b1-4)GlcNAc(b1-4)GlcNAc(b1-4)GlcNAc(b1-4)GlcNAc
Procedure, shortened: as §1

[28] = biological target: GlcNAc(b1-4)GlcNAc(b1-4)GlcNAc(b1-4)GlcNAc(b1-4)GlcNAc(b1-4)GlcNAc
Procedure, shortened: as §1

[29] = biological target: GlcNAc(b1-4)[GlcNAc(b1-6)]GalNAc
Procedure, shortened: as §1

B1: Tachylectin-2 (Tachypleus tridentatus), TAL2_TACTR (protein)
chain: VGGESMLRGVYQDKFYQGTYPQNKNDNWLARATLIGKGGWSNFKFLFLSPGGELYGVLNDKIYKGTPPTHDNDNWMGRAKKIGNGGWNQFQFLFFDPNGYLYAVSKDKLYKASPPQSDTDNWIARATEIGSGGWSGFKFLFFHPNGYLYAVHGQQFYKALPPVSNQDNWLARATKIGQGGWDTFKFLFFSSVGTLFGVQGGKFYEDYPPSYAHDNWLARAKLIGNGGWDDFRFLFF
Q: What does the source list for B1?
A: glycan array binding signal (z-score) (GalNAc(a1-3)GalNAc): 4.41; glycan array binding signal (z-score) [1]: 2.23; glycan array binding signal (z-score) (GalNAc(b1-3)Gal): -0.345; glycan array binding signal (z-score) [2]: -0.254; glycan array binding signal (z-score) [3]: -0.295; glycan array binding signal (z-score) [4]: -0.295; glycan array binding signal (z-score) (GalNAc(b1-3)GalNAc): -0.255; glycan array binding signal (z-score) (GalNAc(b1-4)GlcNAc): -0.293; glycan array binding signal (z-score) [5]: -0.289; glycan array binding signal (z-score) (Glc(a1-4)Glc): -0.247; glycan array binding signal (z-score) (Glc(a1-6)Glc(a1-6)Glc): -0.334; glycan array binding signal (z-score) (Glc(b1-4)Glc): -0.295; glycan array binding signal (z-score) (Glc(b1-6)Glc): -0.359; glycan array binding signal (z-score) (GlcA(b1-3)Gal): -0.353; glycan array binding signal (z-score) (GlcA(b1-3)GlcNAc): -0.22; glycan array binding signal (z-score) (GlcA(b1-6)Gal): -0.294; glycan array binding signal (z-score) [6]: 3.09; glycan array binding signal (z-score) [7]: 3.43; glycan array binding signal (z-score) [8]: 2.81; glycan array binding signal (z-score) [9]: 2.22; glycan array binding signal (z-score) [10]: 3.7; glycan array binding signal (z-score) [11]: 3.52; glycan array binding signal (z-score) [12]: 3.96; glycan array binding signal (z-score) [13]: 3.69; glycan array binding signal (z-score) [14]: 4.99; glycan array binding signal (z-score) [15]: -0.195; glycan array binding signal (z-score) [16]: 0.696; glycan array binding signal (z-score) [17]: -0.292; glycan array binding signal (z-score) [18]: -0.295; glycan array binding signal (z-score) (GlcNAc(b1-3)Gal): -0.318; glycan array binding signal (z-score) [19]: -0.349; glycan array binding signal (z-score) (GlcNAc(b1-3)Gal(b1-4)Glc): 1.74; glycan array binding signal (z-score) [20]: 0.651; glycan array binding signal (z-score) [21]: -0.231; glycan array binding signal (z-score) (GlcNAc(b1-3)GalNAc): -0.348; glycan array binding signal (z-score) (GlcNAc(b1-3)Man): -0.096; glycan array binding signal (z-score) [22]: -0.413; glycan array binding signal (z-score) [23]: 2.19; glycan array binding signal (z-score) [24]: -0.283; glycan array binding signal (z-score) [25]: 1.17; glycan array binding signal (z-score) (GlcNAc(b1-4)GlcNAc): 0.169; glycan array binding signal (z-score) [26]: 0.09; glycan array binding signal (z-score) [27]: 0.004; glycan array binding signal (z-score) [28]: -0.051; glycan array binding signal (z-score) [29]: 0.045
